Assay results as given in PubChem BioAssay AID624417 (National Center for Advancing Translational Sciences (NCATS), 2012).
In all, about 410,000 compounds went through this assay and about 6,400 (1.6%) were called active. The inconclusive results got no clear call from the source; some entries with a clear call stand among them for comparison. Calls come from the whole dose curve; as a rule, active = well fitted inhibition curve with a large enough effect; inconclusive = small, poorly fitted or top-dose-only effect; inactive = no such curve, though single readings can be large or run the other way. Potencies beside an inconclusive call are fits to weak or partial responses and may not hold up.

target: Glucagon-like peptide 1 receptor (Homo sapiens) (UniProt P43220); experiment: qHTS of GLP-1 Receptor Inverse Agonists (Inhibition Mode); conditions: HEK293 GLP-1R CRE-luciferase, luminescence, 24 h, GLP-1R form is constitutively active; activity change, negative = inhibition: at 38.3 µM (top of the series) unless noted; note: nearly all actives have a fitted effect of over 55% in size
Sequence of UniProt P43220 (P43220 whole entry, looked up): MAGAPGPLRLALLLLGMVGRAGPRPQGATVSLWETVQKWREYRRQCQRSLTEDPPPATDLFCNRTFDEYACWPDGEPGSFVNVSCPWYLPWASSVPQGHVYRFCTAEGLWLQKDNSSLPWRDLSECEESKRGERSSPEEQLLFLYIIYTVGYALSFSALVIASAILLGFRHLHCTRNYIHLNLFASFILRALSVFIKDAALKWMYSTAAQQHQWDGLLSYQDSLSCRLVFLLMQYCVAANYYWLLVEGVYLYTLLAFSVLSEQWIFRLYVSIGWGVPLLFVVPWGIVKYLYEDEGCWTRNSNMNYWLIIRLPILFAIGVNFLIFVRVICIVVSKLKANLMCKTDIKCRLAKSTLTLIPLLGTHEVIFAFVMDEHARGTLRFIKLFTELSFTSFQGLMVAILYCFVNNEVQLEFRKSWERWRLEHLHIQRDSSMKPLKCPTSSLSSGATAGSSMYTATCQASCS
Summary of the method: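 Cells are plated, allowed 12 hours at 37 deg C, then treated with compounds for 24 hr before luciferase detection reagent is added and luminescence is read after 12 min at room temperature. The HEK293 line carries constitutively active GLP-1R with a cAMP-responsive reporter.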
% is set by controls: 0 for no effect and ±100 for the full control effect; potency is the fitted concentration of half-maximal effect; tags give direction and shape of the fitted curve.

Potency, inconclusive:
CC12CCC(C(=O)Nc3cccc4ccccc34)(C1Br)C2(C)C (configuration not stated) 5.01 µM [inhibitor, full curve, poor fit], CCCCOc1cccc(C(=O)Nc2cccc(-c3nc4ncccc4o3)c2C)c1 11.2 µM [inhibitor, partial curve, poor fit], O=C(Nc1cccc2c1CCCC2)c1cc(C2CCCCN2C(=O)OCCF)on1 (configuration not stated) 31.6 µM [inhibitor, single point], CCn1cc(Br)c(C(=O)Nc2ccc(F)c(Cl)c2)n1 20 µM [inhibitor, single point], CC(C)=CCc1c(-c2ccc(O)cc2O)oc2cc3c(c(O)c2c1=O)C=CC(C)(C)O3 1.26 µM [inhibitor, partial curve, poor fit], CCc1cccc2c(C(=O)Cn3nnc(-c4ccc(OC)c(OC)c4)n3)c[nH]c12 28.2 µM [inhibitor, single point], Cc1cccc(NC(=S)NC2CCCCC2)n1 12.6 µM [inhibitor, partial curve, poor fit], O=C(c1ccccc1)c1ccc(C(=O)N2CCN(c3ccc(F)cc3)CC2)o1 10 µM [inhibitor, partial curve], O=C(NCCCN1CCOCC1)c1c(O)c2cc(Br)cc(Br)c2[nH]c1=O 14.1 µM [inhibitor, single point], Cc1cc(Br)ccc1OCCCCNCCO 10 µM [inhibitor, single point], O=C(Nc1cccc(F)c1)[C@H](CSCc1ccccc1)N1Cc2ccccc2C1=O 12.6 µM [inhibitor, partial curve, poor fit], Cc1cc(C)c(-c2cc(NC(=O)COC(=O)c3ccc(CO)cc3)n(-c3ccccc3)n2)cc1C 17.8 µM [inhibitor, partial curve, poor fit], O=C(O)/C=C/c1cnn(-c2ccccc2)c1 7.94 µM [inhibitor, partial curve, poor fit], COc1ccc(NC(=S)N2CCC(C(=O)c3ccc(OC)cc3)CC2)cc1 31.6 µM [inhibitor, partial curve, poor fit], O=C(CSc1nccn1C1CCCC1)Nc1ccc(C(F)(F)F)cc1 11.2 µM [inhibitor, partial curve, poor fit], Cc1ccc(CNC(=O)CC(C)S(=O)(=O)c2ccc3c(c2)NC(=O)C(C)S3)cc1 (configuration not stated) 3.16 µM [inhibitor, partial curve, poor fit]

Activity change, negative = inhibition, inactive:
C=C(C)c1sc(-c2ccccc2)nc1C 3.66%
